Residue numbers refer to the chain shown, from its start. In names and notes the source's numbering stands. Results are given in words; binding and its absence hold for the method and conditions named. Binding seen in cells or lysates may run through a third protein. Some results given as binding are weak or reduced against the parent protein; the word gives no strength. Tags and fused reporters may be left off the sequences shown. Values belong to the binder of their own block, whether it stands above or below them.
Legend:
[1] = biological target: T1, SFB-SGT1 (triple-tagged SGT1, wild type), in HEK293T (human) (UniProt Q9Y2Z0); assay: co-IP; HEK293T co-transfected with SFB-tagged SGT1 (WT or 4A) and a Myc-tagged partner; precipitation with streptavidin (SBP) beads; blot with Myc antibody; NETN buffer (Fig. 1B, 5A, 6E)
T1 sequence: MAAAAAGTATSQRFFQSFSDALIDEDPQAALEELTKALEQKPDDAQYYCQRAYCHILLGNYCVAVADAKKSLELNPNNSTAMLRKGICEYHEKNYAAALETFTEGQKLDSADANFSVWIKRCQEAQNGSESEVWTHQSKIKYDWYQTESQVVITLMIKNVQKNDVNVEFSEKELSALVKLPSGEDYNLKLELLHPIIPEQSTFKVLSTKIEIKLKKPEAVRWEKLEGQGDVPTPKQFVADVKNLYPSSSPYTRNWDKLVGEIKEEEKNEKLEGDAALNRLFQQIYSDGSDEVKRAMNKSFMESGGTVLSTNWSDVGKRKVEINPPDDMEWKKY

[2] = biological target: T2, SFB-SGT1 4A (S17A/T233A/S249A/S289A), phospho-dead mutant (human) (UniProt Q9Y2Z0); assay: as above
T2 sequence: T1 sequence with S17A, T233A, S249A, S289A

[3] = biological target: T3, SFB-RNF41 (triple-tagged RNF41) (human) (UniProt Q9H4P4); assay: condition: only with exogenous Myc-tagged PHLPP1 expressed; co-IP; as a4, but cells transfected with Myc-tagged PHLPP1 (Fig. 5E)
T3 sequence: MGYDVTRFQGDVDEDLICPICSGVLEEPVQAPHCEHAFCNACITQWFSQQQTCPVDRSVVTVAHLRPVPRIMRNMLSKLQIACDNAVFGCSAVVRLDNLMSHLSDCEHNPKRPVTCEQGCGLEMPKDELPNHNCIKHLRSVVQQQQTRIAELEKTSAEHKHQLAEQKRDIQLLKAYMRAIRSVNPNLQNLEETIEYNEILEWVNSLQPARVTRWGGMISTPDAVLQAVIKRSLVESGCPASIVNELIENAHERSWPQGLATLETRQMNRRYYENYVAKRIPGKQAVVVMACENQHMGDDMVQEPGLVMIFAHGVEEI

[4] = biological target: T3, SFB-RNF41 (triple-tagged RNF41) (human); assay: co-IP; cells with SFB-RNF41 and vector control; precipitation with streptavidin beads; blot with SGT1 antibody (Fig. 5E); also cells with control or PHLPP1 shRNA, immunoprecipitation 'as indicated' (Fig. 5D)
[5] = biological target: T4, SFB-SGT1 (triple-tagged SGT1, wild type), in HeLa (human) (UniProt Q9Y2Z0); assay: co-IP; HeLa cells expressing SFB-SGT1, nocodazole arrest and release, later stages of mitosis (post-kinetochore assembly); streptavidin beads; blots with PHLPP1 and RNF41 antibodies (Fig. 7A)
T4 sequence: T1 sequence

[6] = biological target: T4, SFB-SGT1 (triple-tagged SGT1, wild type), in HeLa (human); assay: condition: only early stages of mitosis after release from nocodazole; co-IP; HeLa cells expressing SFB-SGT1, nocodazole arrest and release, early stages of mitosis; streptavidin beads; blots with PHLPP1 and RNF41 antibodies (Fig. 7A)

binding [1]: binds
binding [2]: no binding
B1: Myc-RNF41 wild type (enzyme, UniProt Q9H4P4 1-317)
chain: T3 sequence

binding [5]: binds
binding [6]: no binding
B4: RNF41, endogenous in HeLa (enzyme, UniProt Q9H4P4 1-317)
chain: T3 sequence

The next lines start with the binder.

B2: Myc-RNF41 C34A (catalytically inactive mutant) (enzyme, UniProt Q9H4P4 1-317)
chain: T3 sequence with C34A
binding [1]: binds

B3: SGT1 (suppressor of G2 allele of SKP1 homolog), endogenous (protein, UniProt Q9Y2Z0 1-365)
chain: MAAAAAGTATSQRFFQSFSDALIDEDPQAALEELTKALEQKPDDAQYYCQRAYCHILLGNYCVAVADAKKSLELNPNNSTAMLRKGICEYHEKNYAAALETFTEGQKLDIETGFHRVGQAGLQLLTSSDPPALDSQSAGITGADANFSVWIKRCQEAQNGSESEVWTHQSKIKYDWYQTESQVVITLMIKNVQKNDVNVEFSEKELSALVKLPSGEDYNLKLELLHPIIPEQSTFKVLSTKIEIKLKKPEAVRWEKLEGQGDVPTPKQFVADVKNLYPSSSPYTRNWDKLVGEIKEEEKNEKLEGDAALNRLFQQIYSDGSDEVKRAMNKSFMESGGTVLSTNWSDVGKRKVEINPPDDMEWKKY
binding [3]: no binding
binding [4]: binds

Source: article PMC5572923
